{"source": "PubChem BioAssay AID686979", "about": "(National Center for Advancing Translational Sciences (NCATS), 2013)", "note": "About 50,000 (12%) of roughly 420,000 compounds were called active. The inconclusive results got no clear call from the source; some entries with a clear call stand among them for comparison. Calls follow the shape of the dose curve; as a rule, active = well fitted inhibition curve with a large enough effect; inconclusive = small, poorly fitted or top-dose-only effect; inactive = flat fitted curve, though single readings scatter. No potency is given beside an inconclusive call; the fits are too rough. Potency is read from the fitted curve at half-maximal effect; tags tell the direction and shape of the fitted curve."}
{"test": "qHTS for Inhibitors of human tyrosyl-DNA phosphodiesterase 1 (TDP1): qHTS in cells in presence of CPT; also: nearly all actives have a fitted effect of over 55% in size", "conditions": "chicken DT40 Tdp1-/-;hTDP1 cells + 20 nM CPT, ATP luminescence, 48 h; series mostly up to 46.2 µM", "method_in_brief": "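Chicken DT40 Tdp1-/- cells complemented with human TDP1, 400 cells/well, exposed to compounds plus 20 nM camptothecin for at least 48 h at 37 C; viability read as ATP content by CellTiter-Glo luminescence.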"}
{"smiles": "COc1ccc(C(=O)Nc2ccccc2-c2nnn(CC(=O)N3CCOCC3)n2)cc1", "Potency": "inactive"}
{"smiles": "O=C1c2ccccc2-c2nc3ccccc3cc21", "Potency": "inconclusive [inhibitor, single point]"}
{"smiles": "Cc1nc2ncnn2c(C)c1CCC(=O)NCc1ccco1", "Potency": "inactive"}
{"smiles": "O=C(/C=C/c1cccs1)N1CCC2(CC1)Oc1ccc(Cl)cc1C(=O)C21CC(c2cccnc2)=NO1", "note": "(configuration not stated)", "Potency": "inconclusive [inhibitor, single point]"}
{"smiles": "CC(O)(c1ccccc1)c1nc(-c2csc3ccccc23)cs1", "note": "(configuration not stated)", "Potency": "inconclusive [inhibitor, single point]"}
{"smiles": "O=c1c2ccccc2oc2nc(C3CCCCC3)n(Cc3ccco3)c(=O)c12", "Potency": "inconclusive [inhibitor, single point]"}
{"smiles": "CCC1=NN(C(=O)c2ccc(Cl)cc2)C(O)(c2ccccc2)C1", "note": "(configuration not stated)", "Potency": "active: 23.1 µM"}
{"smiles": "Cc1ccc(S(=O)(=O)N(C)C[C@@H]2Oc3ccc(NC(=O)CCC(F)(F)F)cc3CC(=O)N([C@@H](C)CO)C[C@@H]2C)cc1", "Potency": "active: 4.11 µM"}
{"smiles": "Cc1cc(C)n(-c2ccc(C(=O)OCC(=O)Nc3ccc(Cl)cc3[N+](=O)[O-])cc2)n1", "Potency": "inactive"}
{"smiles": "COc1ccc(Nc2nc(N)c([N+](=O)[O-])c(NCc3ccccc3)n2)cc1", "Potency": "inconclusive [inhibitor, single point]"}
{"smiles": "O=C(CSc1nc2nccnc2c(=O)n1Cc1cccs1)Nc1ccccc1", "Potency": "inactive"}
{"smiles": "CCc1ccc(C(O)c2ncc(-c3ccccc3Cl)[nH]2)cc1", "note": "(configuration not stated)", "Potency": "inactive"}
{"smiles": "O=C(/C=C/c1cccc(Br)c1)NCC1CCCCC1", "Potency": "inconclusive [inhibitor, single point]"}
{"smiles": "COC(=O)[C@]1(Cc2ccccc2)N[C@H](CN(C)C(=O)Nc2ccc(F)cc2)[C@@H]2C(=O)N(Cc3ccccc3)C(=O)[C@@H]21", "Potency": "inconclusive [inhibitor, single point]"}
{"smiles": "O=C(/C=C/c1ccccc1)COC(=O)c1ccccc1", "Potency": "inconclusive [inhibitor, single point]"}
{"smiles": "O=C(CCNC(=O)c1ccco1)Nc1ccc(OC(F)F)cc1", "Potency": "inactive"}
{"smiles": "Cc1cc(=O)n2[nH]c(-c3cccc(Cl)c3)cc2n1", "Potency": "active: 18.4 µM"}
{"smiles": "CC1CCN(C(=O)c2cc3nc(C4CC4)cc(C(F)(F)F)n3n2)CC1", "Potency": "inconclusive [inhibitor, partial curve]"}
{"smiles": "C=CCn1c(SCC(=O)Nc2sc(C)c(C)c2C(=O)OCC)nnc1-c1sc(N)nc1C", "Potency": "inconclusive [inhibitor, partial curve]"}
{"smiles": "CCCN1C(=O)/C(=C/c2ccco2)SC1=Nc1ccc(OC)cc1", "Potency": "inactive"}
{"smiles": "COc1ccc(C(=O)NCCn2cc(SCC(=O)Nc3ccccc3)c3ccccc32)cc1OC", "Potency": "inconclusive [inhibitor, single point]"}
{"smiles": "Cc1ccc(/C=N\\NC(=O)C2CN(S(=O)(=O)c3ccccc3)CCN2S(=O)(=O)c2ccccc2)cc1", "note": "(configuration not stated)", "Potency": "inconclusive [inhibitor, partial curve]"}
{"smiles": "CC(NC(=O)CN(c1cccc(C(F)(F)F)c1)S(=O)(=O)c1ccc(Cl)c([N+](=O)[O-])c1)c1ccccc1", "note": "(configuration not stated)", "Potency": "active: 4.61 µM"}
{"smiles": "Cc1cccn2c(/C=N/OCc3cccc(F)c3)c(-c3ccc(Cl)cc3)nc12", "Potency": "inconclusive [inhibitor, single point]"}
{"smiles": "Cn1c(=O)n(CCc2ccccc2)c(=O)c2c1nc1n2CCCN1c1ccccc1", "Potency": "inactive"}
{"smiles": "CCOC(=O)C1CCCN(C(=O)c2cncc(Br)c2)CC1", "note": "(configuration not stated)", "Potency": "inactive"}
{"smiles": "CCCCCCCCCCOC(=O)C[N+](C)(C)C/C=C(/C)Cl", "Potency": "active: 8.2 µM"}
{"smiles": "CCOC(=O)C1=C(N)Oc2cc(O)ccc2C1c1cccnc1", "note": "(configuration not stated)", "Potency": "active: 23.1 µM"}
{"smiles": "Cc1ccc2[nH]c(=O)c(C(c3nnnn3C3CCCC3)N(Cc3cccnc3)Cc3ccco3)cc2c1", "note": "(configuration not stated)", "Potency": "inconclusive [inhibitor, single point]"}
{"smiles": "CCCn1nc(C(=O)Nc2ccc(-n3cnnn3)cc2)c2ccccc2c1=O", "Potency": "inconclusive [inhibitor, partial curve, poor fit]"}
{"smiles": "O=C(NCc1ccccc1)c1ccc2c(c1)C(=O)N(Cc1cccnc1)C2=O", "Potency": "inactive"}
{"smiles": "CCCCNC(=O)C[C@@H]1C[C@@]2(C(=O)OC)CC(C)(C)CC=C2N(CCc2ccc(OC)c(OC)c2)C1=O", "Potency": "inconclusive [inhibitor, single point]"}
{"smiles": "Cc1ccc(C(=O)NNC(=O)c2nn(-c3ccc(F)cc3)ccc2=O)cc1", "Potency": "inactive"}
{"smiles": "C[C@@H]1COc2cc(N(C)CCO)ccc2S(=O)(=O)N1", "Potency": "inactive"}
{"smiles": "Cc1ccc(C(=O)c2nocc2C(=O)c2cccs2)cc1", "Potency": "inactive"}
{"smiles": "CCn1c(CS(=O)Cc2ccc(Cl)cc2Cl)nnc1SCc1c(Cl)cccc1Cl", "note": "(configuration not stated)", "Potency": "inconclusive [inhibitor, single point]"}
{"smiles": "Cc1ccc(N=Nc2ccc(O)c(P(=O)(c3ccccc3)c3ccccc3)c2)cc1", "Potency": "inconclusive [inhibitor, single point]"}
{"smiles": "CCN(CC)c1ccc(C2Nc3cccc4cccc(c34)N2)c(O)c1", "Potency": "inactive"}
{"smiles": "Cc1ccc(-c2cc(-c3ccco3)c3c(N)c(C(=O)NN)oc3n2)cc1", "Potency": "inconclusive [inhibitor, single point]"}
{"smiles": "CCc1c(Cl)nc(N)nc1Nc1ccccc1Cl", "Potency": "inactive"}
{"smiles": "CCOc1cccc(CN2CCCC(C(=O)Nc3cccc(-n4cccn4)c3)C2)c1", "note": "(configuration not stated)", "Potency": "inconclusive [inhibitor, single point]"}
{"smiles": "C=CCNCCCCOc1ccccc1", "Potency": "inactive"}
{"smiles": "NC(=O)CC(NC(=O)Cc1cccc2ccccc12)c1ccc(NC2CCCC2)c([N+](=O)[O-])c1", "note": "(configuration not stated)", "Potency": "inactive"}
{"smiles": "CCOc1cc(C)c(C(C)C)cc1S(=O)(=O)N1CCOCC1", "Potency": "inconclusive [inhibitor, single point]"}
{"smiles": "O=C(CCc1nc2ccccc2c(=O)[nH]1)Nc1cc(C(F)(F)F)ccc1N1CCOCC1", "Potency": "inconclusive [inhibitor, single point]"}
{"smiles": "CC(OC(=O)c1ccccc1NCCO)C(=O)NCC(=O)Nc1ccc(F)c(F)c1F", "note": "(configuration not stated)", "Potency": "inactive"}
{"smiles": "COC(=O)c1ccc2nc(-c3ccc(F)cc3)c(Cc3cccc(F)c3)n2c1", "Potency": "inactive"}
